Among all 380,000 compounds or so, about 4,000 (1.1%) were called active. The shares of active, inactive and inconclusive entries below differ from those in the screen. Calls come from the whole dose curve; as a rule, active = well fitted activation curve with a large enough effect; inconclusive = small, poorly fitted or top-dose-only effect; inactive = no such curve, though single readings can be large or run the other way. Potencies beside an inconclusive call are fits to weak or partial responses and may not hold up. Some compounds were tested as several samples or in several runs, with calls that do not always agree.
Assay: qHTS Assay to Identify Small Molecule Activators of BRCA1 Expression; note: nearly all actives have a fitted effect of over 80% in size
Conditions: MCF7-BRCA1-FFLuc reporter, luminescence, 48 h; activation: at 46.1 µM (top of the series), scaled: vehicle 0%, 10 µM genistein 100% unless noted
Summary of the method: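 Using MCF7 cells harboring a BRCA1 firefly luciferase reporter, plated 2 h before compound pinning, the screen measured luminescence after 48 h incubation. Responses were normalized to DMSO and 10 microM genistein, then fitted for concentration-effect.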
Potency is the fitted concentration of half-maximal effect; tags give direction and shape of the fitted curve.

Structure (SMILES) | Potency | activation
CC(=O)Oc1ccc(N(C(C)=O)S(=O)(=O)c2ccc(C)cc2C)c2ccccc12 | inactive | 
COC(=O)c1ccc(COC(=O)c2cccnc2Cl)cc1 | active: 12.6 µM | 
COc1ccc(C(=O)CSc2nccn2C)cc1 | active: 8.91 µM | 
CC1(C)Cc2c(c(-c3ccco3)nc3sc4c(NCCCO)ncnc4c23)CO1 | inactive | 
CC(=O)Oc1ccc2c(=O)c(-c3ccccc3)coc2c1 | active: 7.94 µM | 
O=C(c1cc(COc2ccc(F)c(F)c2)on1)N1CCOCC1 | inconclusive: 10 µM [activator, partial curve, poor fit] | 
c1csc(-c2nc(-c3ccc(-c4ccon4)s3)no2)c1 | inconclusive: 1.58 µM [activator, partial curve, poor fit] | 
COc1ccc(-c2noc(-c3ccccc3Cl)n2)cc1OC | inconclusive: 35.5 µM [activator, single point] | 
O=C(Cn1nnc(-c2ccccc2)n1)N/N=C/c1cc([N+](=O)[O-])ccc1O | inactive | 
CC(=O)Nc1cccc(C(=O)N/N=C/c2ccc(F)cc2)c1 | inconclusive: 3.98 µM [activator, full curve, poor fit] | 
O=C(Nc1ccc(Cl)cc1)c1ccc(-c2ccccn2)s1 | inconclusive: 22.4 µM [activator, single point] | 
O=C(NN=Cc1ccccc1Cl)c1ccccc1 | active: 5.62 µM | 
COc1cccc(NC(=O)C(=O)c2cn(CC(=O)N3CCOCC3)c3ccccc23)c1 | inconclusive: 17.8 µM [activator, single point] | 
CC(=O)Nc1ccc(C(=O)Nc2nc(-c3cccnc3)cs2)cc1 | inactive | 
O=C(Nc1ccc2c(c1)OCO2)c1ccc(CO)cc1 | inconclusive: 1 µM [activator, full curve, poor fit] | 
Cc1ccc2nc(NC(=O)c3ccc4ncsc4c3)sc2c1 | inconclusive: 2.24 µM [activator, partial curve, poor fit] | 
CC(C)S(=O)(=O)N1CCCC(c2cc(C(=O)Nc3ccc(F)c(Cl)c3)no2)C1 (stereo not given) | inconclusive: 17.8 µM [activator, partial curve, poor fit] | 
CCCCOc1ccc(-c2ncc(N)cn2)cc1 | active: 2.51 µM | 
COc1ccc2cc(-c3ccccc3F)ncc2c1 | inconclusive: 2 µM [activator, partial curve, poor fit] | 
COc1ccc(Cl)c(-c2cc(C(=O)Nc3ccccc3)[nH]n2)c1 | inconclusive: 11.2 µM [activator, partial curve, poor fit] | 
OC[C@H]1O[C@@H](c2nc3ccc(-c4nc(-c5ccc(Br)cc5)no4)cc3[nH]2)C[C@@H]1O | inconclusive: 2.82 µM [activator, full curve, poor fit] | 
O=C(CSc1nnc(-c2cccnc2)o1)Nc1ccccn1 | inconclusive: 1.78 µM [activator, partial curve, poor fit] | 
CC(C)(C)S(=O)(=O)N1C[C@@H]2CC/C=C\C/C(c3ccccc3)=C\2[C@H]1CCO | inactive | 
COc1cccc(OC)c1OCCCOc1cccc2cccnc12 | inconclusive: 14.1 µM [activator, partial curve, poor fit] | 
CC(=O)c1cc(C#N)c(SCc2ccc(F)cc2)nc1C | inconclusive: 14.1 µM [activator, partial curve, poor fit] | 

Structure (SMILES) | Potency | activation
CC(C)Cc1ccc(/C=C/C(=O)NC2CC2)cc1 | active: 5.62 µM | 
Cc1ccc(CNc2nc(Cl)c(C#N)s2)cc1 | inconclusive: 15.8 µM [activator, partial curve, poor fit] | 
C/C(=N\NC(=O)OC(C)(C)C)c1cccc([N+](=O)[O-])c1 | inconclusive: 12.6 µM [activator, single point] | 
Clc1ccccc1-c1nc(-c2ccncc2)no1 | active: 1.78 µM | 
CC(C)CC(=O)Nc1nc2ccc(S(C)(=O)=O)cc2s1 | inconclusive: 15.8 µM [activator, single point] | 
C=CCOc1ccc(CNc2nccs2)cc1OCC | inactive | 
NC(=S)N/N=C/c1ccc2c(c1)OCCO2 | inconclusive: 12.6 µM [activator, single point] | 
C/C(CC(=O)Nc1ccc(C)c(Cl)c1)=N\NC(=O)c1ccccn1 | inconclusive: 31.6 µM [activator, single point] | 
COc1ccc(/C=C/c2noc(-c3ccccc3OC(C)=O)n2)cc1 | inconclusive: 0.631 µM [activator, full curve, poor fit] | 
O=C(Nc1n[nH]c(=S)s1)c1ccc2ccccc2c1 | inconclusive: 12.6 µM [activator, partial curve, poor fit] | 
CCCCCC(=O)Nc1nc2ccccc2[nH]1 | inconclusive: 1.58 µM [activator, partial curve, poor fit] | 
Cc1c(C(=O)N(C)c2ccc(Cl)cc2)cnn1-c1ccccc1 | inconclusive: 35.5 µM [activator, partial curve, poor fit] | 
Cc1ccc(S(=O)(=O)N(C)C)cc1NC(=O)c1cncc(Br)c1 | inactive | 
CN(c1nc(-c2ccc(Br)cc2)cs1)C1CCS(=O)(=O)C1 (stereo not given) | active: 11.2 µM | 
Nc1ccc(C(=O)OCc2ccncc2)cc1[N+](=O)[O-] | inconclusive: 35.5 µM [activator, single point] | 
CSc1ncccc1C(=O)OCC(=O)c1cc(C)n(C)c1C | inactive | 
CCCC[C@@H]1CCCO[C@@](C(=O)NCc2ccccn2)(C(F)(F)F)C1 | inactive | 
S=C(NCCc1ccccc1)N1CCCCC1 | inconclusive: 3.98 µM [activator, partial curve, poor fit] | 
CN(CCCC1CCCC1)C(=O)CCc1nnc(-c2ccccc2)o1 | inconclusive: 31.6 µM [activator, single point] | 
N/C(=N\NC(=O)Nc1ccccc1)c1ccccn1 | inconclusive: 15.8 µM [activator, partial curve, poor fit] | 
CNc1cncc(-c2ccc(C)cc2)n1 | inconclusive: 11.2 µM [activator, partial curve, poor fit] | 
Cc1ccc(-c2nc3ccc(Cl)cn3c2Cc2cccc(Cl)c2)cc1 | inconclusive: 17.8 µM [activator, single point] | 
CCOC(=O)c1cnc2c(-c3cccc(Br)c3)cnn2c1C | inconclusive: 17.8 µM [activator, single point] | 
O=C(COc1ccccc1[N+](=O)[O-])Nc1ccc2c(c1)OCO2 | active: 10 µM | 
O=C(Nc1cc(C(F)(F)F)ccc1-n1cncn1)c1ccc(Cl)cc1 | inactive | 

Structure (SMILES) | Potency | activation
Cc1ccc(Nc2nc(N)nc(CSC(=S)N3CCOCC3)n2)cc1 | active: 5.01 µM | 
O=C(Nc1ccc2c(c1)OCCO2)C1CCCN(c2ncccn2)C1 (stereo not given) | active: 10 µM | 
CCNC(=O)c1cccc(S(=O)(=O)N2CCCCCC2)c1 | inactive | 
COc1ncccc1-c1nnn(-c2ccccc2)n1 | inconclusive: 2.24 µM [activator, partial curve, poor fit] | 
COc1cc(N(C)C)ccc1/C=C1\C=Cc2ccccc21 | inconclusive: 7.94 µM [activator, partial curve, poor fit] | 
O=C1NC(=S)N/C1=C/C=C/c1ccccc1 | inconclusive: 25.1 µM [activator, partial curve, poor fit] | 
Clc1ccc(-c2cn3cccnc3n2)cc1 | inconclusive: 14.1 µM [activator, partial curve, poor fit] | 
O=C(NC(=S)Nc1ccccc1O)c1ccc(Cl)cc1Cl | inactive | 
COc1cccc(-c2cc(NC=O)c3ncc(-c4cc(OC)c(OC)c(OC)c4)n3c2)c1 |  | inconclusive: -60.1% [activator]
C/C(=N\NC(=O)c1cccs1)c1c(O)cc(C)oc1=O | active: 3.55 µM | 
Cc1cccc(NC(=O)/C(C#N)=C/c2ccccc2O)n1 | inconclusive: 10 µM [activator, partial curve, poor fit] | 
O=C(c1ccccc1)c1ccc(N2CCOCC2)c(F)c1 | inconclusive: 2.51 µM [activator, full curve, poor fit] | 
COc1ccc(-n2nc(C(=O)Nc3ccc(OC)c(OC)c3)c3c4ccccc4n(C)c3c2=O)cc1 | inactive | 
C=C(C)CNC(=O)c1ccc2nc(Cc3ccc(OC)cc3)oc2c1 | active: 10 µM | 
c1ccc(-c2noc(CC3CCCCC3)n2)nc1 | active: 7.08 µM | 
CNC(=O)c1[nH]nc2c1CCc1cc(OC)ccc1-2 | inconclusive: 10 µM [activator, partial curve, poor fit] | 
O=C(NCCOc1ccccc1)c1ccccc1NC(=O)C1CCCO1 (stereo not given) | inconclusive: 1 µM [activator, full curve, poor fit] | 
Cc1ccc(-n2nc3cc(C)c(N)cc3n2)cc1 | inactive | 
O=C(Nc1ccc(NC(=O)c2ccccc2)nc1)c1ccncc1 | inconclusive: 31.6 µM [activator, single point] | 
CC1CCC(=C(C#N)c2nc(-c3cc4ccccc4oc3=O)cs2)CC1 (stereo not given) | inconclusive: 3.16 µM [activator, full curve, poor fit] | 
Cc1ccccc1NC(=S)N=Nc1c(O)n(C)c2ccc(S(=O)(=O)N3CCOCC3)cc12 | inactive | 
CCOC(=O)Cc1nnc(NC(=O)C(CC)Sc2nc(C)cc(=O)[nH]2)s1 (stereo not given) | inactive | 
O=C(N/N=C/C=C\c1cccc([N+](=O)[O-])c1)c1cccnc1 | inactive | 
CC(=O)c1ccc(S(=O)(=O)NCC2(N3CCOCC3)CCCCC2)cc1 | inactive | 
O=C1c2ccccc2NC(c2ccccc2O)N1c1ccc(F)cc1 (stereo not given) | active: 3.98 µM | 

Source: PubChem BioAssay AID624202 (National Center for Advancing Translational Sciences (NCATS), 2012)
